According to PubChem BioAssay AID686978 (National Center for Advancing Translational Sciences (NCATS), 2013):
About 64,000 (15%) of roughly 420,000 compounds were called active. The inconclusive results got no clear call from the source; some entries with a clear call stand among them for comparison. Calls come from the whole dose curve; as a rule, active = well fitted inhibition curve with a large enough effect; inconclusive = small, poorly fitted or top-dose-only effect; inactive = flat fitted curve, though single readings scatter. No potency is given beside an inconclusive call; the fits are too rough.

experiment: qHTS for Inhibitors of human tyrosyl-DNA phosphodiesterase 1 (TDP1): qHTS in cells in absence of CPT; details: DT40 Tdp1-/- hTDP1 cells, no CPT, ATP luminescence, 48 h; activity change, negative = growth inhibition: at 46.2 µM (top of the series); note: nearly all actives have a fitted effect of over 55% in size
Summary of the method: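 Cells were dispensed at 400 per well, compounds added by pin tool, plates incubated ≥48 hr at 37 °C, then CellTiter-Glo added for 30 min at room temperature before luminescence reading. Line: DT40 Tdp1-/- complemented with hTDP1; camptothecin omitted.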
% is set by controls: 0 for no effect and ±100 for the full control effect; potency is the fitted concentration of half-maximal effect; tags give direction and shape of the fitted curve.

Row | Compound | activity change, negative = growth inhibition | Potency
1 | Cc1ccc2cc([N+](=O)[O-])ccc2n1 | inactive: -3.22% | –
2 | COc1ccccc1NC(=O)c1nn(C)c(C(=O)Nc2ccccc2OC)c1[N+](=O)[O-] | – | inconclusive [inhibitor, single point]
3 | O=C(C(=O)N1CCc2ccccc2C1)c1cn(CC(=O)N2CCOCC2)c2ccccc12 | – | inconclusive [inhibitor, full curve, poor fit]
4 | COc1ccc(-c2ccc3c(c2)S(=O)(=O)c2cccc(C(=O)O)c2C3=O)cc1OC | inactive: 12% | –
5 | CCCCN(CCCC)c1nc(-c2ccncc2)nc2ccccc12 | – | active: 23.1 µM
6 | COc1c(Cl)cnn(-c2ccc(Cl)c(Cl)c2)c1=O | inactive: -4.48% | –
7 | c1csc(-c2nn3c(Cn4cnc5ccccc54)nnc3s2)c1 | – | inconclusive [inhibitor, single point]
8 | COc1ccc(-c2sc(Nc3ccccc3)n[n+]2-c2ccc(F)cc2)c(OC)c1OC | – | active: 13 µM
9 | CCOC(=O)c1cccc(NC(=O)C2CCCN2S(=O)(=O)c2cccc3cccnc23)c1 (centres undefined) | inactive: -26.4% | –
10 | COC(=O)C1=C(C)n2nnnc2NC1c1cc2ccccc2o1 (centres undefined) | – | inconclusive [inhibitor, single point]
11 | Cc1ccc(N2CC(C(=O)Nc3c4c(nn3C(C)(C)C)CS(=O)(=O)C4)CC2=O)cc1C (centres undefined) | inactive: -15.8% | –
12 | O=C(NCc1ccccn1)C(=O)NCC1OCCN1S(=O)(=O)c1ccc(Cl)cc1 (centres undefined) | inactive: -11.5% | –
13 | COc1ccc(CCNC(=O)c2cc3n(n2)CCCN(Cc2ccc(C)cc2)C3=O)cc1OC | – | active: 20.6 µM
14 | O=C(O)Cn1nc(-c2ccc(F)cc2)oc1=O | – | inconclusive [inhibitor, single point]
15 | Cn1cccc1Cc1nnc(SCC(=O)NC2CCCCC2)n1-c1ccc(F)cc1 | – | inconclusive [inhibitor, single point]
16 | Cc1nc(N2CCOCC2)nc2c1CCCC2 | inactive: -3.14% | –
17 | CCOc1ccc(CCNC(=O)CSCC(=O)Nc2cccc(C)c2)cc1OCC | – | inconclusive [inhibitor, single point]
18 | Cc1cc(C)cc(-n2cnc3cc(C(=O)NC4CCCCCC4)ccc32)c1 | – | inconclusive [inhibitor, single point]
19 | CCC(C)(C)NC(=O)C(c1ccc(OC)cc1)N(Cc1cccs1)C(=O)CCC(=O)Nc1cc(C)on1 (centres undefined) | – | inconclusive [inhibitor, single point]
20 | CC1CN(C(=O)c2ccc(COc3ccc4ccccc4c3)o2)CC(C)O1 (centres undefined) | – | inconclusive [inhibitor, partial curve, poor fit]
21 | CCCCn1c(N)c(N(CCC(C)C)C(=O)CN2C(=O)C3CCCCC3C2=O)c(=O)[nH]c1=O (centres undefined) | inactive: -4.17% | –
22 | Cc1cc(OCC(=O)NC2CCN(Cc3ccccc3)CC2)c2c(C)cc(=O)oc2c1 | – | inconclusive [inhibitor, single point]
23 | COc1ccc(C(=O)N(C)C2CCCCC2)cc1S(=O)(=O)N1CCOCC1 | inactive: -9.74% | –

Row | Compound | activity change, negative = growth inhibition | Potency
24 | CCc1ccccc1NC(=O)CNC(=O)c1cc(C2CC2)nn1-c1ccccc1 | inactive: -18% | –
25 | Cc1ccc(S(=O)(=O)N2CCN(C(=O)CCOc3ccccc3C)CC2)cc1C | – | inconclusive [inhibitor, partial curve]
26 | c1ccc(-c2nnc(-c3ccccn3)nn2)nc1 | – | inconclusive [inhibitor, single point]
27 | O=C(Nc1ccn(CCCNCc2cccc3ccccc23)c(=O)n1)OCc1ccccc1 | – | inconclusive [inhibitor, single point]
28 | OCCSc1nc(N2CCOCC2)nc(N2CCOCC2)n1 | – | inconclusive [inhibitor, partial curve]
29 | Cc1ccc(C(=O)c2cc3ccccc3o2)cc1[N+](=O)[O-] | – | inconclusive [inhibitor, single point]
30 | C[C@@H]1CN(Cc2ccc3c(c2)CN(Cc2cccc(O)c2)CCO3)C[C@H](C)O1 | – | inconclusive [inhibitor, partial curve]
31 | O=C(NCc1ccccc1F)c1sc2ncccc2c1-n1cccc1 | – | inconclusive [inhibitor, single point]
32 | O=S(=O)(NCCS(=O)(=O)N1CCN(c2cccc(Cl)c2)CC1)c1ccc(F)cc1 | – | active: 20.6 µM
33 | CSCCOC(=O)C1=C(C)Nc2ccc(C)cc2S1 | – | active: 16.4 µM
34 | CC(=O)NN1C(=O)c2ccc3c4c(ccc(c24)C1=O)C(=O)N(NC(C)=O)C3=O | – | inconclusive [inhibitor, single point]
35 | CCN1CCN(c2ccc(S(=O)(=O)N3CCCCC3)cc2NC(=O)c2cccc(C)c2)CC1 | – | inconclusive [inhibitor, single point]
36 | CCCCNC(=S)NNC(=O)c1cc(C)on1 | – | inconclusive [inhibitor, single point]
37 | CCOc1ccc(C2=NC(c3cccs3)=Nc3ccc(CC)cc3N2)cc1OCC | – | active: 18.4 µM
38 | CSc1ccccc1C(=O)N(C)C(c1ccccc1)c1ccccc1 | – | inconclusive [inhibitor, single point]
39 | COC(=O)CN1C(=O)C(C)(C)c2cc(S(=O)(=O)Nc3ccc(Br)cc3F)ccc21 | inactive: -9.67% | –
40 | CC(C)(C)C(=O)NC(c1ccccc1)c1c(O)ccc2ccccc12 (centres undefined) | – | inconclusive [inhibitor, single point]
41 | CCN(CC)c1ccc(NC(=O)CN2CCN(c3ccccc3F)CC2)cc1 | – | inconclusive [inhibitor, single point]
42 | COC(=O)[C@@H](Cc1ccccc1)NC(=O)NCCc1ccc(OC)c(OC)c1 | inactive: -34.1% | –
43 | Clc1cccc(Cc2c(-c3cccc(Cl)c3)nc3ccc(Br)cn23)c1 | – | inconclusive [inhibitor, single point]
44 | CC1C(=O)N(Cc2ccc([N+](=O)[O-])cc2)c2ccccc2N1C(=O)C1CC1 (centres undefined) | – | inconclusive [inhibitor, single point]
45 | CCOC(=O)c1nnn(CC(=O)N2N=C(c3cccc4ccccc34)CC2c2ccccc2)c1C(=O)OCC (centres undefined) | – | active: 20.6 µM
46 | Cc1cc(C)c(C(=O)N(CCN(C)C)CC2CCCN(Cc3ccccc3F)C2)o1 (centres undefined) | – | inconclusive [inhibitor, single point]

Row | Compound | activity change, negative = growth inhibition | Potency
47 | CCCC(NCC(=O)Nc1ccccc1C(=O)NC1CC1)c1ccccc1 (centres undefined) | – | inconclusive [inhibitor, single point]
48 | Cc1ccc(S(=O)(=O)NC2CCCc3ccccc32)cc1C (centres undefined) | – | inconclusive [inhibitor, single point]
49 | OC[C@@H]1CN(Cc2ccc3c(c2)OCO3)C[C@H](n2cnc3c(NCc4ccc(F)cc4)ncnc32)O1 | – | inconclusive [inhibitor, single point]
50 | CCC(=O)Nc1c(C)cc(C)cc1Cl | – | inconclusive [inhibitor, partial curve]
51 | Cc1ccc(NS(=O)(=O)c2c(C(=O)N3CCCCCC3)c(C)n(C)c2C)c(Cl)c1 | – | inconclusive [inhibitor, single point]
52 | COc1ccc(-c2cc(C(F)(F)F)nc(N3CCN(C)CC3)n2)cc1 | – | active: 16.4 µM
53 | O=C(Nc1ccc2nsnc2c1)c1ccc2c(c1)OCO2 | – | inconclusive [inhibitor, partial curve]
54 | CC(=O)N1CCCc2cc(S(=O)(=O)N3CCCC(C(=O)Nc4ccc(C)cc4C)C3)ccc21 (centres undefined) | – | inconclusive [inhibitor, single point]
55 | CC1Oc2ccccc2N(Cc2ccccc2Cl)C1=O (centres undefined) | – | inconclusive [inhibitor, single point]
56 | O=C(COC(=O)C12CC3CC(CC(C3)C1)C2)Nc1ccc([N+](=O)[O-])cc1Cl | – | inconclusive [inhibitor, single point]
57 | CCCC(=O)N1CCC1(C)C(=O)Nc1scc(C)c1C#N (centres undefined) | – | active: 14.6 µM
58 | COc1ccc(OC)c2sc(N(CCN(C)C)C(=O)c3ccc4ccccc4c3)nc12 | – | inconclusive [inhibitor, single point]
59 | Cc1cc(C)n(CCc2nc3c4ccccc4nc(N4CCN(c5cccc(C)c5C)CC4)n3n2)n1 | – | inconclusive [inhibitor, full curve]
60 | C[C@@H]1CN([C@@H](C)CO)C(=O)CCCn2nncc2CO[C@H]1CN(C)C(=O)C1CC1 | inactive: 1.92% | –
61 | COc1ccc(C(C(=O)NC2CCCCC2)N(C(=O)CCl)c2ccc(OC)cc2)cc1 (centres undefined) | – | active: 1.46 µM
62 | CCCOc1ccc(C(=O)NC(=S)N2CCN(c3ncc4c(=O)c(C(=O)O)cn(CC)c4n3)CC2)cc1 | – | inconclusive [inhibitor, single point]
63 | CCCCCO | inactive: -3.4% | –
64 | CN(C(=O)c1ccccc1C(=O)OCC(=O)c1ccc(Br)cc1)c1ccccc1 | – | inconclusive [inhibitor, single point]
65 | Cc1ccc(-c2nn(-c3ccc(F)cc3)cc2C(=O)NCC(c2cccs2)N2CCOCC2)cc1 (centres undefined) | – | active: 14.6 µM
66 | CCn1c(Cc2cccc3ccccc23)nnc1SCC(=O)Nc1nccs1 | – | inconclusive [inhibitor, partial curve]
67 | COc1ccc(NC(=O)c2ccc(NC(=O)N3CCSc4ncccc43)cc2)cc1 | – | inconclusive [inhibitor, single point]
68 | Cc1ccnc(SCC(=O)n2c3c(c4ccccc42)CC(C)CC3)n1 (centres undefined) | inactive: -27.9% | –
69 | COc1ccc(CNC(=O)CS(=O)Cc2nc(-c3ccc(C)cc3)oc2C)cc1 (centres undefined) | – | inconclusive [inhibitor, single point]
